# The other results are listed elsewhere or left out.
# How the values were obtained:
# Assay in all cases: glycan array binding signal (z-score within array); higher = stronger binding
# Conditions in all cases: glycan notation: IUPAC condensed, linker removed
# [1] = target: Gal(b1-4)Glc
# How it was run: (§1)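 Glycan array binding is given as a within-array Z-score, which can be read as non-binding when negative. The arrays, 3228 of them, came from the Consortium for Functional Glycomics database and were retained only where the protein sequence was available. Z-scores were averaged across arrays of the same protein sequence at different concentrations or buffers and across linkers.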
# [2] = target: Gal(b1-4)Glc6S
# How it was run: as §1
# [3] = target: Gal(b1-4)GlcNAc
# How it was run: as §1
# [4] = target: Gal(b1-4)GlcNAc(a1-6)Gal(b1-4)GlcNAc
# How it was run: as §1
# [5] = target: Gal(b1-4)GlcNAc(b1-2)Man
# How it was run: as §1
# [6] = target: Gal(b1-4)GlcNAc(b1-2)Man(a1-3)Man(b1-4)GlcNAc(b1-4)GlcNAc
# How it was run: as §1
# [7] = target: Gal(b1-4)GlcNAc(b1-2)Man(a1-3)[Gal(b1-4)GlcNAc(b1-2)Man(a1-6)]Man(b1-4)GlcNAc(b1-4)GlcNAc
# How it was run: as §1
# [8] = target: Gal(b1-4)GlcNAc(b1-2)Man(a1-3)[Gal(b1-4)GlcNAc(b1-2)Man(a1-6)]Man(b1-4)GlcNAc(b1-4)[Fuc(a1-6)]GlcNAc
# How it was run: as §1
# [9] = target: Gal(b1-4)GlcNAc(b1-2)Man(a1-3)[Gal(b1-4)GlcNAc(b1-2)Man(a1-6)][Gal(b1-4)GlcNAc(b1-4)]Man(b1-4)GlcNAc(b1-4)[Fuc(a1-6)]GlcNAc
# How it was run: as §1
# [10] = target: Gal(b1-4)GlcNAc(b1-2)Man(a1-3)[Gal(b1-4)GlcNAc(b1-2)Man(a1-6)][GlcNAc(b1-4)]Man(b1-4)GlcNAc(b1-4)[Fuc(a1-6)]GlcNAc
# How it was run: as §1
# [11] = target: Gal(b1-4)GlcNAc(b1-2)Man(a1-3)[GlcNAc(b1-2)Man(a1-6)]Man(b1-4)GlcNAc(b1-4)GlcNAc
# How it was run: as §1
# [12] = target: Gal(b1-4)GlcNAc(b1-2)Man(a1-3)[GlcNAc(b1-4)][Gal(b1-4)GlcNAc(b1-2)Man(a1-6)]Man(b1-4)GlcNAc(b1-4)GlcNAc
# How it was run: as §1
# [13] = target: Gal(b1-4)GlcNAc(b1-2)Man(a1-3)[Man(a1-6)]Man(b1-4)GlcNAc(b1-4)GlcNAc
# How it was run: as §1
# [14] = target: Gal(b1-4)GlcNAc(b1-2)Man(a1-6)Man(b1-4)GlcNAc(b1-4)GlcNAc
# How it was run: as §1
# [15] = target: Gal(b1-4)GlcNAc(b1-2)Man(a1-6)[GlcNAc(b1-2)Man(a1-3)]Man(b1-4)GlcNAc(b1-4)GlcNAc
# How it was run: as §1
# [16] = target: Gal(b1-4)GlcNAc(b1-2)Man(a1-6)[Man(a1-3)]Man(b1-4)GlcNAc(b1-4)GlcNAc
# How it was run: as §1
# [17] = target: Gal(b1-4)GlcNAc(b1-2)[Gal(b1-4)GlcNAc(b1-4)]Man(a1-3)[Gal(b1-4)GlcNAc(b1-2)Man(a1-6)]Man(b1-4)GlcNAc(b1-4)GlcNAc
# How it was run: as §1
# [18] = target: Gal(b1-4)GlcNAc(b1-2)[Gal(b1-4)GlcNAc(b1-4)]Man(a1-3)[Gal(b1-4)GlcNAc(b1-2)[Gal(b1-4)GlcNAc(b1-6)]Man(a1-6)]Man(b1-4)GlcNAc(b1-4)GlcNAc
# How it was run: as §1
# [19] = target: Gal(b1-4)GlcNAc(b1-2)[Gal(b1-4)GlcNAc(b1-4)]Man(a1-3)[GlcNAc(b1-4)][Gal(b1-4)GlcNAc(b1-2)Man(a1-6)]Man(b1-4)GlcNAc(b1-4)GlcNAc
# How it was run: as §1
# [20] = target: Gal(b1-4)GlcNAc(b1-2)[Gal(b1-4)GlcNAc(b1-4)]Man(a1-3)[GlcNAc(b1-4)][Gal(b1-4)GlcNAc(b1-2)[Gal(b1-4)GlcNAc(b1-6)]Man(a1-6)]Man(b1-4)GlcNAc(b1-4)GlcNAc
# How it was run: as §1
# [21] = target: Gal(b1-4)GlcNAc(b1-2)[Gal(b1-4)GlcNAc(b1-6)]Man(a1-6)[Gal(b1-4)GlcNAc(b1-2)Man(a1-3)]Man(b1-4)GlcNAc(b1-4)GlcNAc
# How it was run: as §1
# [22] = target: Gal(b1-4)GlcNAc(b1-2)[Gal(b1-4)GlcNAc(b1-6)]Man(a1-6)[Gal(b1-4)GlcNAc(b1-2)Man(a1-3)]Man(b1-4)GlcNAc(b1-4)[Fuc(a1-6)]GlcNAc
# How it was run: as §1
# [23] = target: Gal(b1-4)GlcNAc(b1-2)[Gal(b1-4)GlcNAc(b1-6)]Man(a1-6)[GlcNAc(b1-4)][Gal(b1-4)GlcNAc(b1-2)Man(a1-3)]Man(b1-4)GlcNAc(b1-4)GlcNAc
# How it was run: as §1
# [24] = target: Gal(b1-4)GlcNAc(b1-2)[Gal(b1-4)GlcNAc(b1-6)]Man(a1-6)[GlcNAc(b1-4)][Gal(b1-4)GlcNAc(b1-2)[Gal(b1-4)GlcNAc(b1-4)]Man(a1-3)]Man(b1-4)GlcNAc(b1-4)[Fuc(a1-6)]GlcNAc
# How it was run: as §1
# [25] = target: Gal(b1-4)GlcNAc(b1-3)Gal(b1-3)GalNAc
# How it was run: as §1
# [26] = target: Gal(b1-4)GlcNAc(b1-3)Gal(b1-3)GlcNAc
# How it was run: as §1
# [27] = target: Gal(b1-4)GlcNAc(b1-3)Gal(b1-4)Glc
# How it was run: as §1
# [28] = target: Gal(b1-4)GlcNAc(b1-3)Gal(b1-4)GlcNAc
# How it was run: as §1
# [29] = target: Gal(b1-4)GlcNAc(b1-3)Gal(b1-4)GlcNAc(b1-2)Man(a1-3)[Gal(b1-4)GlcNAc(b1-3)Gal(b1-4)GlcNAc(b1-2)Man(a1-6)]Man(b1-4)GlcNAc(b1-4)GlcNAc
# How it was run: as §1
# [30] = target: Gal(b1-4)GlcNAc(b1-3)Gal(b1-4)GlcNAc(b1-2)Man(a1-3)[Gal(b1-4)GlcNAc(b1-3)Gal(b1-4)GlcNAc(b1-2)Man(a1-6)]Man(b1-4)GlcNAc(b1-4)[Fuc(a1-6)]GlcNAc
# How it was run: as §1
# [31] = target: Gal(b1-4)GlcNAc(b1-3)Gal(b1-4)GlcNAc(b1-2)[Gal(b1-4)GlcNAc(b1-3)Gal(b1-4)GlcNAc(b1-6)]Man(a1-6)[Gal(b1-4)GlcNAc(b1-3)Gal(b1-4)GlcNAc(b1-2)Man(a1-3)]Man(b1-4)GlcNAc(b1-4)GlcNAc
# How it was run: as §1
# [32] = target: Gal(b1-4)GlcNAc(b1-3)Gal(b1-4)GlcNAc(b1-2)[Gal(b1-4)GlcNAc(b1-3)Gal(b1-4)GlcNAc(b1-6)]Man(a1-6)[Gal(b1-4)GlcNAc(b1-3)Gal(b1-4)GlcNAc(b1-2)Man(a1-3)]Man(b1-4)GlcNAc(b1-4)[Fuc(a1-6)]GlcNAc
# How it was run: as §1
# [33] = target: Gal(b1-4)GlcNAc(b1-3)Gal(b1-4)GlcNAc(b1-3)Gal(b1-4)GlcNAc
# How it was run: as §1
# [34] = target: Gal(b1-4)GlcNAc(b1-3)Gal(b1-4)GlcNAc(b1-3)Gal(b1-4)GlcNAc(b1-2)Man(a1-3)[Gal(b1-4)GlcNAc(b1-3)Gal(b1-4)GlcNAc(b1-3)Gal(b1-4)GlcNAc(b1-2)Man(a1-6)]Man(b1-4)GlcNAc(b1-4)GlcNAc
# How it was run: as §1
# [35] = target: Gal(b1-4)GlcNAc(b1-3)Gal(b1-4)GlcNAc(b1-3)Gal(b1-4)GlcNAc(b1-2)Man(a1-3)[Gal(b1-4)GlcNAc(b1-3)Gal(b1-4)GlcNAc(b1-3)Gal(b1-4)GlcNAc(b1-2)Man(a1-6)]Man(b1-4)GlcNAc(b1-4)[Fuc(a1-6)]GlcNAc
# How it was run: as §1
# [36] = target: Gal(b1-4)GlcNAc(b1-3)Gal(b1-4)GlcNAc(b1-3)Gal(b1-4)GlcNAc(b1-2)[Gal(b1-4)GlcNAc(b1-3)Gal(b1-4)GlcNAc(b1-3)Gal(b1-4)GlcNAc(b1-6)]Man(a1-6)[Gal(b1-4)GlcNAc(b1-3)Gal(b1-4)GlcNAc(b1-3)Gal(b1-4)GlcNAc(b1-2)Man(a1-3)]Man(b1-4)GlcNAc(b1-4)[Fuc(a1-6)]GlcNAc
# How it was run: as §1
# [37] = target: Gal(b1-4)GlcNAc(b1-3)Gal(b1-4)GlcNAc(b1-3)Gal(b1-4)GlcNAc(b1-3)Gal(b1-4)GlcNAc(b1-2)Man(a1-3)[Gal(b1-4)GlcNAc(b1-3)Gal(b1-4)GlcNAc(b1-3)Gal(b1-4)GlcNAc(b1-3)Gal(b1-4)GlcNAc(b1-2)Man(a1-6)]Man(b1-4)GlcNAc(b1-4)GlcNAc
# How it was run: as §1
binder,measurement,setting,value
Cohesin-hDECTIN-1 (Homo sapiens) (protein) LDITSHHHHHHDDLDAVRIKVDTVNAKPGDTVRIPVRFSGIPSKGIANCDFVYSYDPNVLEIIEIEPGDIIVDPNPDKSFDTAVYPDRKIIVFLFAEDSGTGAYAITKDGVFATIVAKVKEGAPNGLSVIKFVEVGGFANNDLVEQKTQFFDGGVNVGDTTEPATPTTPVTTPTTTDDLDAASSSPCPPNWIIYEKSCYLFSMSLNSWDGSKRQCWQLGSNLLKIDSSNELGFIVKQVSSQPDNSFWIGLSRPQTEVPWLWEDGSTFSSNLFQIRTTATQENPSPNCVWIHVSVIYDQLCSVPSYSICEKKFM,glycan array binding signal (z-score),[1],-0.373
same,glycan array binding signal (z-score),[2],-0.485
same,glycan array binding signal (z-score),[3],-0.424
same,glycan array binding signal (z-score),[4],-0.267
same,glycan array binding signal (z-score),[5],-0.296
same,glycan array binding signal (z-score),[6],-0.185
same,glycan array binding signal (z-score),[7],-0.071
same,glycan array binding signal (z-score),[8],-0.466
same,glycan array binding signal (z-score),[9],-0.514
same,glycan array binding signal (z-score),[10],-0.463
same,glycan array binding signal (z-score),[11],-0.407
same,glycan array binding signal (z-score),[12],-0.486
same,glycan array binding signal (z-score),[13],-0.444
same,glycan array binding signal (z-score),[14],-0.378
same,glycan array binding signal (z-score),[15],-0.399
same,glycan array binding signal (z-score),[16],-0.377
same,glycan array binding signal (z-score),[17],-0.581
same,glycan array binding signal (z-score),[18],-0.507
same,glycan array binding signal (z-score),[19],-0.354
same,glycan array binding signal (z-score),[20],0.176
same,glycan array binding signal (z-score),[21],-0.001
same,glycan array binding signal (z-score),[22],0.659
same,glycan array binding signal (z-score),[23],-0.519
same,glycan array binding signal (z-score),[24],-0.228
same,glycan array binding signal (z-score),[25],-0.361
same,glycan array binding signal (z-score),[26],-0.261
same,glycan array binding signal (z-score),[27],-0.403
same,glycan array binding signal (z-score),[28],-0.182
same,glycan array binding signal (z-score),[29],2.71
same,glycan array binding signal (z-score),[30],0.966
same,glycan array binding signal (z-score),[31],0.801
same,glycan array binding signal (z-score),[32],0.231
same,glycan array binding signal (z-score),[33],-0.489
same,glycan array binding signal (z-score),[34],0.563
same,glycan array binding signal (z-score),[35],-0.009
same,glycan array binding signal (z-score),[36],0.446
same,glycan array binding signal (z-score),[37],0.569

# Reference: the supplement of paper PMC8728848
